About 18,000 (5.8%) of roughly 310,000 compounds were called active. The shares of active, inactive and inconclusive entries below differ from those in the screen. The call rests on the fitted dose curve; in most records, active means well fitted inhibition curve with a large enough effect; inconclusive means small, poorly fitted or top-dose-only effect, or another doubt; inactive means no such curve, though single readings can be large or run the other way. Potencies of inconclusive entries are left out as doubtful fits.
Test: Primary qHTS for delayed death inhibitors of the malarial parasite plastid, 48 hour incubation
Conditions: P. falciparum luciferase growth in erythrocytes; series mostly up to 28.7 µM
How it was run: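 First compound was added to culture medium, then infected red cells at 0.1% parasitemia and 2% hematocrit (final). After incubation at 37 C under 5% CO2, luciferase detection reagent was dispensed and light output recorded.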
In the case of `O=C(NC(=S)NNC(=O)c1ccccc1O)c1ccco1`, the Potency is reported as inconclusive [inhibitor, single point]. In the case of `O=C(/C=C/c1ccc(Cl)c([N+](=O)[O-])c1)Nc1ccc(N2CCCC2)c(Cl)c1`, the Potency is reported as inconclusive [inhibitor, partial curve, poor fit]. With `O=CCCCC=O` the Potency was active: 15.1 µM. For `COc1cc(F)ccc1S(=O)(=O)NCc1cccnc1`, the Potency was “inactive”. With `O=C(CN1CCN(S(=O)(=O)c2ccc(F)cc2)CC1)NCc1cccs1` the Potency was inconclusive [inhibitor, partial curve, poor fit]. With `CCN1C(=O)/C(=C/c2ccc(C)s2)SC1=Nc1ccc(OC)cc1` the Potency was inconclusive [inhibitor, full curve]. With `COc1ccc(C2(c3ccc(OC(C)=O)cc3OC(C)=O)CC(c3ccccc3)NC(=S)N2)cc1` (stereo not drawn) the Potency was inconclusive [inhibitor, partial curve, poor fit]. In the case of `O=C(Nc1ccc2c(c1)nc1n2CCCCC1)c1cc(S(=O)(=O)N2CCOCC2)ccc1Cl`, the Potency is reported as inconclusive [inhibitor, partial curve]. With `CCCCCCCOC(=O)c1nc(Cl)c(Cl)c(N)c1Cl` the Potency was inconclusive [inhibitor, single point]. For `Cc1ccc(N2CCN(C3=NC(=O)/C(=C\c4cccs4)S3)CC2)cc1`, the Potency was inconclusive [inhibitor, partial curve, poor fit]. In the case of `CCCCCCCc1c(O)nc(SCCN2CCOCC2)[nH]c1=O`, the Potency is reported as “inactive”. With `COc1ccc(Cl)cc1NC(=O)CSc1nc(=O)n(CCN(C)C)c2c1CCCC2` the Potency was inconclusive [inhibitor, single point]. In the case of `COc1ccccc1NC(=O)C(C)OC(=O)C1CCC(C(C)(C)C)CC1` (stereo not drawn), the Potency is reported as active: 2.94 µM. In the case of `Cc1cccc(NC(=O)CNC(=O)Cc2ccc(S(=O)(=O)N3CCOCC3)s2)c1C`, the Potency is reported as inconclusive [inhibitor, partial curve, poor fit]. With `Cc1ccc(OCc2cc(C(=O)N3CC4C[C@@H]5CC3C[C@H](C4)C5)no2)cc1C` the Potency was “inactive”. In the case of `N=C1/C(=C/c2ccco2)C(=O)N=C2SC(CC(=O)N3CCCC3)=NN12`, the Potency is reported as “inactive”. With `O=C(NCCN1CCCC1)c1ccc(Cn2c(=S)[nH]c3ccc(Br)cc3c2=O)cc1` the Potency was inconclusive [inhibitor, single point]. For `Cc1cnc(C(=O)Nc2ccccc2-n2cccc2)cn1`, the Potency was “inactive”. With `COc1cc(CO)ccc1OCc1nnnn1-c1ccc(C)cc1` the Potency was “inactive”. For `Cn1c(C(=O)OC(C(=O)NC2CCCCC2)c2ccccn2)cc2sccc21` (stereo not drawn), the Potency was inconclusive [inhibitor, single point]. In the case of `c1ccc(CN2CCCC3(CCCN(Cc4nc(COc5ccccc5)no4)C3)C2)cc1` (stereo not drawn), the Potency is reported as active: 11.7 µM. In the case of `COc1ccccc1CNCC(=O)Nc1cc(S(=O)(=O)N2CCOCC2)ccc1Cl`, the Potency is reported as inconclusive [inhibitor, single point]. With `Cc1cc(C)n(CC(O)CN2c3ccccc3Sc3ccccc32)n1` (stereo not drawn) the Potency was inconclusive [inhibitor, partial curve]. With `CCOC(=O)C1=C(CNCCc2ccc(Cl)cc2)NC(=O)NC1c1cccc([N+](=O)[O-])c1` (stereo not drawn) the Potency was inconclusive [inhibitor, partial curve, poor fit]. With `COc1cccc(OC(C)c2ccnc3nc(/N=C/N(C)C)nn23)c1` (stereo not drawn) the Potency was inconclusive [inhibitor, full curve, poor fit]. For `O=C(c1nc2ccc(Cl)cn2c1CN1CCCC(CO)C1)N1CCc2ccccc2C1` (stereo not drawn), the Potency was inconclusive [inhibitor, single point]. For `O=C(CSc1nnc(-c2cccs2)n1-c1ccccc1)Nc1ccccc1`, the Potency was inconclusive [inhibitor, single point]. In the case of `COc1cccc(NC(=O)CSc2nc3ncc(Br)cc3[nH]2)c1`, the Potency is reported as “inactive”. For `COCCCn1c(N)c(C(=O)NCCC(C)C)c2nc3ccccc3nc21`, the Potency was inconclusive [inhibitor, single point]. With `COc1ccc(CNC(=O)CCC(=O)c2ccccc2)cc1` the Potency was active: 14.7 µM. For `CCC(=NCc1cccnc1)c1c(O)n(Cc2ccccc2)c(=O)[nH]c1=O`, the Potency was “inactive”. With `CN(C)/C=N/c1c(C#N)cnn1-c1nc2ccccc2s1` the Potency was “inactive”. With `COc1cc(NC(=O)c2cc(CC(C)C)on2)c(OC)cc1Cl` the Potency was inconclusive [inhibitor, single point]. In the case of `CCN1CCCC1CNC(=O)C(=O)NC(C)c1ccccc1` (stereo not drawn), the Potency is reported as “inactive”. In the case of `CCc1ccccc1NC(=O)N[C@@H](C)C(=O)O`, the Potency is reported as “inactive”. For `Cc1cc(C)c2[nH]c(=O)c(C(c3nnnn3Cc3ccc4c(c3)OCO4)N3CCCC3)cc2c1` (stereo not drawn), the Potency was active: 13.1 µM. For `CCCCN(C(=O)CSc1cc(C)c2ccc(OC)cc2n1)c1c(N)n(Cc2ccccc2)c(=O)[nH]c1=O`, the Potency was “inactive”. For `COc1ccc(C2=NCC(=O)N(CC(=O)NCc3ccco3)c3sc4c(c32)CCCC4)cc1OC`, the Potency was inconclusive [inhibitor, single point]. With `O=C(CN1CCN(c2ccccc2O)CC1)NC(=O)NC1CCCC1` the Potency was inconclusive [inhibitor, partial curve, poor fit]. In the case of `NC(=O)C(=CNc1nc(-c2ccc(Cl)c(Cl)c2)cs1)C(N)=O`, the Potency is reported as inconclusive [inhibitor, single point]. In the case of `COc1ccccc1-c1nnc(SCC(=O)NC2CCCCC2)o1`, the Potency is reported as “inactive”. For `Cc1ccccc1NC(=S)N1CCCC(c2nc3ccccc3[nH]2)C1` (stereo not drawn), the Potency was “inactive”. In the case of `COc1ccc(NC(=O)COc2ccc(CNCCCN3CCOCC3)cc2OC)cc1`, the Potency is reported as inconclusive [inhibitor, partial curve, poor fit]. For `COc1cc2c(cc1OC)C(C)N(CCN1C(=O)c3ccccc3C1=O)CC2` (stereo not drawn), the Potency was “inactive”. In the case of `COCCNC(=O)Cc1c(C)c2cc3c(cc2oc1=O)OC(C)(C)CC3`, the Potency is reported as “inactive”. In the case of `N=Cc1c(O)n(-c2ccc(C34CC5CC(CC(C5)C3)C4)cc2)c(=O)[nH]c1=O`, the Potency is reported as “inactive”. With `Cc1ccc(C(=O)N2c3ccccc3N(Cc3ccccc3)C(=O)C2(C)C)cc1` the Potency was active: 11.7 µM. With `CSc1ccc(C(=O)C2CCCN(C(=O)c3nn(C)c(=O)c4ccccc34)C2)cc1` (stereo not drawn) the Potency was “inactive”. In the case of `COc1cccc(C(=O)NNC2=C(C(=O)C(F)(F)F)CCC2)c1`, the Potency is reported as “inactive”. With `COc1cc(-c2nnc(-c3ccco3)o2)ccc1OCc1ccccc1` the Potency was inconclusive [inhibitor, single point]. With `CC1CCN(CCc2nc3cc(NC(=O)COc4ccccc4)ccc3n2C)CC1` the Potency was inconclusive [inhibitor, single point]. For `O=C(N/N=C/c1ccccc1OC(F)F)NC1CCCCC1`, the Potency was inconclusive [inhibitor, single point]. With `Cc1cc(C)c(C(N)=O)c(NCCc2ccccc2)n1` the Potency was “inactive”. In the case of `CCCCOc1ccc(C(=O)CCN2CCCCC2)cc1`, the Potency is reported as “inactive”. With `O=C(c1ccccc1)C(c1ccccc1)c1ccccc1` the Potency was inconclusive [inhibitor, single point]. For `COc1ccc(N/N=C(/C#N)S(=O)(=O)C(C)(C)C)cc1`, the Potency was inconclusive [inhibitor, full curve, poor fit]. With `COc1ccc(C(=O)OCC(=O)NC(Cc2ccccc2)C(C)=O)cc1S(=O)(=O)N1CCCC1` (stereo not drawn) the Potency was inconclusive [inhibitor, single point]. With `COc1cccc(CN(C)C(=O)c2cccc(NC(=O)CC3SC(N4CCCCC4)=NC3=O)c2)c1OC` (stereo not drawn) the Potency was active: 10.4 µM. With `CC(NC(=O)c1ccc2c(=O)n3c(nc2c1)CCCCC3)c1ccccc1` (stereo not drawn) the Potency was “inactive”. With `COC(=O)C1=C(C)N(c2cc(Cl)cc(Cl)c2)C(=O)C1` the Potency was inconclusive [inhibitor, single point]. With `COc1ccccc1NC(=S)NCc1ccc(F)cc1` the Potency was inconclusive [inhibitor, partial curve, poor fit]. With `Cn1c(N2CCN(C(=O)Nc3ccc(F)cc3)CC2)nc2ccccc21` the Potency was inconclusive [inhibitor, single point]. In the case of `COc1ccc(CCNC(=O)CSc2nnc(-c3ccccc3)c3ccccc23)cc1OC`, the Potency is reported as inconclusive [inhibitor, single point]. In the case of `CCN(CC)c1ccc(/C=N/N2CCN(Cc3ccccc3Cl)CC2)c(O)c1`, the Potency is reported as inconclusive [inhibitor, single point]. For `O=[N+]([O-])c1ccccc1S(=O)(=O)N1CCCc2ccccc21`, the Potency was “inactive”. With `CCCCN(C)CCCNC(=O)CN1C(=O)COc2ccc(S(=O)(=O)N3CCOCC3)cc21` the Potency was inconclusive [inhibitor, partial curve, poor fit]. With `O=C(NNc1ccccc1F)c1ccccc1` the Potency was “inactive”. For `COc1ccc(C(=O)Nc2ccc(C(=O)N3CCCCC3)cc2)cc1OC`, the Potency was “inactive”. With `CCOc1ccc(S(=O)(=O)N(CC(=O)N2CCc3ccccc32)Cc2ccco2)cc1` the Potency was inconclusive [inhibitor, partial curve]. For `Cc1nn(Cc2ccc(F)cc2)c2sc(C(=O)Nc3nccs3)cc12`, the Potency was inconclusive [inhibitor, single point]. In the case of `Cc1ccc(-n2ncc3c2CCCC3NC(=O)CCc2cnn(C)c2)cc1C` (stereo not drawn), the Potency is reported as “inactive”. In the case of `C=CCNc1cc(C(F)(F)F)nc(-c2ccccn2)n1`, the Potency is reported as active: 6.57 µM. For `CCC(=O)OCCNc1cc(Sc2nccn2C)c2nonc2c1[N+](=O)[O-]`, the Potency was inconclusive [inhibitor, partial curve].
Potency means the concentration at half of the fitted maximal effect; tags describe the fitted curve by direction and shape.
